Laboratory results from the RNAGym collection of RNA variant scans (doi:10.7554/elife.90254).
The source gives no read counts; variants with many changes may rest on few reads.

B1: LINE1-mini (parent)
chain: GGCAGAGCUCAACACAGCGUGGCAAAGUGGCUGUGGCUAGACUGCC

Variants of: B1
Test: self-cleavage, relative activity (ratio to wild type); higher = more cleavage; in vitro, sequencing; the parent is a self-cleaving ribozyme

Variant | self-cleavage
GGCAGAACUCAACACCGGGUGGCAAAGUGGCUGUGGCGAGACUGCC [G7A A16C C18G U38G] | 0.11
GGCAGAACUAAACACAACGUGGCACAGUGGCUGUGUCUAGACUGCC [G7A C10A G17A A25C G36U] | 0.01
GGCAGAACUCAACGCAGCGUGGCAAAGUGGCUGUGUGUAGACUGCC [G7A A14G G36U C37G] | 0.09
GGCAGAACUCAACACUGCGUUGCAAAGUGGCAGUGGCUAGAUUGCC [G7A A16U G21U U32A C42U] | 0.03
GGCAGAAACCAACACAGAGUGGCAAAGUGGCUCUGGCUAGACUGCC [G7A C8A U9C C18A G33C] | 0.05
GGCAGAACUCAACACAGCGUGGCAAGGUGGCUGGGGCUAGUCUGCC [G7A A26G U34G A41U] | 0.45
GGCAGAACUCAACACGGCGUGGCAAAGUGGCCGUGGCUAGAAUGCC [G7A A16G U32C C42A] | 0.02
GGCAGAAUUCAACCCAGCGUGGCAAAGUAGCUGUGGCUAGACUGCC [G7A C8U A14C G29A] | 0.01
GGCAGAACUCAACUCAGCGUGGCAAAGUGGAUGUGGCUAGACUGCA [G7A A14U C31A C46A] | 0.17
GGCAGAACUUAACACAGAGUGGGAAAGUGGCUGUGGUUAGACUGCC [G7A C10U C18A C23G C37U] | 0.01
GGCAGAACUCAACACAGCGUGGCAACGUGGCUGUUGCUAGACUGCC [G7A A26C G35U] | 0.04
GGCAGAACUCAACACUGCGUGGCAGAGUGGGUGUGGCUAGACUGCC [G7A A16U A25G C31G] | 0.02
GGCAGAAAUCAACACAGCGUGGCAAAGUGACUGUGGCUAGACUGCC [G7A C8A G30A] | 2.62
GGCAGAACUCAACACAGCGUGGCAAUGUGGCUGUGGCUAGACCGCC [G7A A26U U43C] | 0.08
GGCAGAACUGAAUACAGCGUGGCAAAGUGGCUGUGCCUAGACAGCC [G7A C10G C13U G36C U43A] | 0.02
GGCAGAACUAAACACAGCGUGGAAAAGUGGCUGUGGCUAGAUUGCC [G7A C10A C23A C42U] | 0
GGCAGAACUCAACACAGCGUGGCAAGGUGGCUUUGGCUAGACUGCC [G7A A26G G33U] | 0.2
GGCAGAACUCAACACAGCGUGGCAAAGUGGCUGUGGCUAGCCUGAC [G7A A41C C45A] | 0.1
GGCAGAACUCAACACAGCGUGGCAUAGUGGCUCUGGCUAGACUGCA [G7A A25U G33C C46A] | 0.03

Variant | self-cleavage
GGCAGAACUCAACACGGCGUGGCAAAGUGGCUGUGGCUAUUCUGCC [G7A A16G G40U A41U] | 0.22
GGCAGAAAUCAACACAGCGUUGCAAGGUGGUUGUGGCUAGACUGCC [G7A C8A G21U A26G C31U] | 0.18
GGCAGAACUUAACACAGUGUGGCAAAGUGGCUGUCGCUAGACUGCC [G7A C10U C18U G35C] | 0.01
GGCAGAACUCAACACAGCGUGGCAGAGUGGAUGUGGCUAGACUGCC [G7A A25G C31A] | 0.09
GGCAGAACUACACACAGCGUGGCAAAGUGGCUGUGGCUAGACUGGC [G7A C10A A11C C45G] | 0.03
GGCAGAACUCAAAACAGCGUGGCAAAGUGGCUGUGGCUAGCCUGCC [G7A C13A A41C] | 0.13
GGCAGAAUUCAACACAGCGUGGCAAAGGGGCUGUGGCUAGACUGCC [G7A C8U U28G] | 0.99
GGCAGAACUAAACAAAGCGUGCCAAAGUGGCUGUGGCUAGACUGCC [G7A C10A C15A G22C] | 0.02
GGCAGAAUUCAACACACCAUGGCAGAUUUGCUUUGGCUAGACUGCC [G7A C8U G17C G19A A25G G27U G29U G33U] | 0.04
GGCAGAAAUCAACACAGCGUGGCAAAGUGGCUGUCGCUAGACUGCC [G7A C8A G35C] | 0.25
GGCAGAACUUAACACGGCGUGGCAAAGUGGCUGUGGCUAGACUGCC [G7A C10U A16G] | 0.17
GGCAGAACUCAACACAGCGUGGCACUGUGGCCGUGGCUAGACUGCC [G7A A25C A26U U32C] | 0.42
GGCAGAACUGAAAACAGCGUGGCAAGGUGGCUGUGGCUAGACUGCG [G7A C10G C13A A26G C46G] | 0.01
GGCAGAACUCAACGCUGCGUGGCAAAGUGGCUGUGGCUAGACUGCC [G7A A14G A16U] | 0.31
GGCAGAACUUAACACAGCCUGGCAAAGUGGCUGUGGCUAGAAUGCC [G7A C10U G19C C42A] | 0.01
GGCAGAACUCAACACAGCGUGGCAUAGUGGCUGGGGCCAGACUGCU [G7A A25U U34G U38C C46U] | 0.09
GGCAGAACUCAACUCAGCGUGGCAAAGUGGCUGUGGCUAGAGUGCC [G7A A14U C42G] | 0.08
GGCAGAACUCAACACAGCGUGGCAACGUGGCUGUGGCUAGUCUACC [G7A A26C A41U G44A] | 0.38
GGCAGAACUCAACACAGCGUGGCAGAGUGCCUGUGGCUAGACUGCC [G7A A25G G30C] | 0.09

Variant | self-cleavage
GGCAGAACUCAACACAGCGUGGCAAUGUGGCUGUGGCUAAACUGCC [G7A A26U G40A] | 0.15
GGCAGAACUAAACACAUCGUGGCAAAGUGACUGGGGCUAGACUGCC [G7A C10A G17U G30A U34G] | 0.02
GGCAGAAAUCAACAAAGCGUGGCAAAGUGGCUGUGGCAAGACUGCC [G7A C8A C15A U38A] | 0.25
GGCAGAACUCAACACAGCGUGGCACAGCUGCUGUGGCUAGACUGCC [G7A A25C U28C G29U] | 0.07
GGCAGAACUUAAUACAGCUUGGCAAAGUGGCUGUGGCUAGACUGCC [G7A C10U C13U G19U] | 0.13
GGCAGAACUCAACUCAGCGUAGCUAAGUGGCUGUAGCUAGACUGCC [G7A A14U G21A A24U G35A] | 0.41
GGCAGAAGUCAGCACACCGUGGCAUAGUGGCUGUGGCUAGACUGCU [G7A C8G A12G G17C A25U C46U] | 0.01
GGCAGAACUCAACACAGCGUGGCACAGUGGCUGAGGCUAGACUGCC [G7A A25C U34A] | 0.02
GGCAGAACUCAAAACAGCGUGGCACAGUUGCUGUGGCUAGACUGCC [G7A C13A A25C G29U] | 0.18
GGCAGAACUAAACACAGCGUGGCAAAGUGGCUGUGGCUUGACUGCC [G7A C10A A39U] | 0.02
GGCAGAACUCAACACAGCGUGGCAACGUGGAUGUGGCUAGACUGGC [G7A A26C C31A C45G] | 0.03
GGCAGAACUCAACCCAGCUUGGCAAAGUGGCUGUGGCUAGACUGCC [G7A A14C G19U] | 0.03
GGCAGAACUCAACUUAGCGUGGCAAAGUUGAUGUGGCUAGACUGCC [G7A A14U C15U G29U C31A] | 0.03
GGCAGAAAUCAACACAGCGUUGCAAAGUGGCUGUGGCUAGCCUGGC [G7A C8A G21U A41C C45G] | 0.28
GGCAGAACUCAACACAGCGUGGCGAAGUGGCUGUGGCUAGAAUGCC [G7A A24G C42A] | 0.17
GGCAGAACUCAACACAGCGUGGCGAAGUUGCUGUGGCUAGACUGCC [G7A A24G G29U] | 0.03
GGCAGAAGUCAACACAGCCUGGCAAAGUGGCUAUGGCUAGACUGCC [G7A C8G G19C G33A] | 0.02
GGCAGAACUCAACACUGCGUGGCAAAGUUGCUGUGUCUAGACUGCC [G7A A16U G29U G36U] | 0.14
